Assay results taken from the supplement of paper PMC12217912.
The list shows a part of the results. Sequences were assembled here from the parent chain. Values near 0.05 are background.

B1: TEV protease; numbered along this chain (parent)
chain: MGESLFKGPRDYNPISSSICHLTNESDGHTTSLYGIGFGPFIITNKHLFRRNNGTLVVQSLHGVFKVKDTTTLQQHLVDGRDMIIIRMPKDFPPFPQKLKFREPQREERICLVTTNFQTKSMSSMVSDTSCTFPSGDGIFWKHWIQTKDGQCGSPLVSTRDGFIVGIHSASNFTNTNNYFTSVPKNFMELLTNQEAQQWVSGWRLNADSVLWGGHKVFMVKPEEPFQPVKEATQL

Variants of: B1
Test: raw area under fraction-flipped curve 0-4 h after induction (AUC4h, not background-subtracted), DNA-recorder readout of cleavage of the substrate (dimensionless); higher = more cleavage of the substrate by the protease variant
Conditions: temperature: 34 °C; time window: 0-4 h after rhamnose induction
Method: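 In vivo DNA recorder in E. coli TOP10(DE3) ΔrhaA at 34 °C. Each TEVp single-site mutant (parent TEVp 0) is paired with a single-site variant of the 7-mer TEVs (canonical ENLYFQ|S). The substrate sits between flexible linkers in a Bxb1-sfGFP-TEVs-SsrA fusion, so cleavage stabilises Bxb1 and speeds flipping of a recombination array, read by NGS. The value is the raw area under the fraction-flipped curve over 0-4 h after rhamnose induction (AUC4h), with ≥20 reads per time point. It is not background-subtracted; inactive controls average about 0.047.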
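Further: Bxb1 expression induced with 0.2% (w/v) L-rhamnose at OD600 near 0.5, cultures sampled hourly, flipped fraction per protease–substrate barcode pair counted by paired-end Illumina sequencing.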

Variant	area with substrate ENLAFQS	area with substrate ENLDFQS	area with substrate ENLFFQS	area with substrate ENLKFQS	area with substrate ENLNFQS	area with substrate ENLRFQS	area with substrate ENLSFQS	area with substrate ENLTFQS	area with substrate ENLGFQS	area with substrate ENLLFQS	area with substrate ENLMFQS	area with substrate ENLPFQS	area with substrate ENLQFQS	area with substrate ENLWFQS	area with substrate ENLEFQS	area with substrate ENLHFQS	area with substrate ENLIFQS	area with substrate ENLVFQS	area with substrate ENLCFQS
G202T	0.0511	0.0536	0.0559	0.0662	0.0625	0.0425	0.0678	0.0487											
W203M	0.0546	0.0763	0.14	0.043	0.0618	0.0813	0.0524		0.0549	0.0531	0.0612	0.0672	0.0514	0.0527					
R204S	0.061	0.0642	0.0299	0.0776	0.07		0.0704	0.0163		0.0808		0.0586	0.107	0.0476	0.0609	0.0745	0.0867		
L205I	0.0404				0.0452				0.0654						0.0636	0.062			
L205K	0.038				0.0537	0.0654							0.0589	0.0688	0.0575			0.0606	
A207G	0.0807	0.067	0.107				0.0655	0.0681				0.0339	0.0762	0.0558		0.0659			0.0763
A207W	0.068	0.0589	0.0679		0.0586	0.064	0.0437			0.0722		0.0409	0.059		0.0471	0.067	0.0405		0.0633
D208P	0.0465	0.059	0.0554	0.066	0.0578							0.0703	0.056	0.0545	0.0587	0.0642	0.075		
L211Y	0.0684	0.0624	0.0827	0.0769	0.148		0.0763				0.068	0.061	0.0727	0.0896		0.0797			0.0758
W212C	0.0688	0.06	0.0536			0.0591								0.0648				0.0768	0.0953
W212L	0.0735	0.0538	0.109	0.0741	0.0465			0.0654	0.112		0.0464	0.0637	0.0758	0.0709	0.0629	0.0726	0.0772	0.113	0.0831
W212P	0.0562	0.0825	0.0508	0.0744		0.0779			0.0679					0.0575					0.0537
W212R	0.0474	0.0645	0.0605	0.0639	0.0636	0.0436				0.0707		0.0626			0.0516	0.0694		0.0679	
G214R	0.0604	0.0583	0.0753					0.0741		0.0665	0.0397	0.0514	0.0613	0.0576	0.0586	0.028			0.0681
V217K	0.055	0.0684		0.0529	0.0712	0.0405	0.082			0.074				0.0573	0.07	0.0421	0.0925	0.0579	
V217Y	0.063	0.0702	0.0678	0.0584			0.0544			0.0617		0.0646	0.0553	0.0513	0.0862		0.071		
F218W	0.0644	0.058	0.086	0.0737	0.0686	0.0655	0.0537		0.0523		0.0744	0.0624		0.0487		0.0754	0.085	0.0752	0.0615
P222K	0.0558	0.0599	0.074	0.0766		0.0629	0.0522	0.0582	0.077				0.0574			0.0668	0.0779		0.0736
E223V	0.0634	0.0487	0.0942	0.0752		0.0868							0.0578	0.0664		0.0582			
E223W	0.0702	0.0581	0.0678	0.0776	0.0616	0.0905		0.0779			0.082	0.0508	0.0748	0.0827	0.0858		0.0767	0.0743	0.0673
P225G	0.0786	0.0626	0.0774	0.0737	0.0696	0.0967	0.0659			0.0583		0.063	0.0711	0.0776		0.0681			0.0662
P225M	0.078	0.0554	0.0893		0.0603	0.0515				0.0625	0.0694	0.0683	0.0331	0.0746	0.0612	0.0699	0.0765	0.0703	0.105
F226R	0.0711	0.0569	0.0746	0.0835	0.0719		0.057		0.0575			0.0539			0.0579	0.0492	0.101		0.0844
Q227C	0.0649	0.069		0.0724	0.0619	0.0819	0.0616			0.09		0.0628			0.0609	0.0578			0.0628
P228G	0.0698	0.0633		0.0665	0.063	0.0714						0.0637	0.083	0.0596	0.0479	0.0727	0.0638	0.0812	
P228M	0.0505	0.0599	0.091	0.0782	0.0647	0.0741	0.0679			0.0722	0.0557	0.0499	0.0592			0.08		0.0519	0.0676
V229S	0.0666	0.0645	0.0794	0.0849		0.0991	0.0655			0.0722		0.0517	0.0856		0.0672	0.0811	0.092	0.0289	0.0651
K230Q	0.039	0.0527	0.081	0.0664		0.0796	0.0715			0.079		0.0527		0.0707	0.0603	0.0643	0.0869	0.133	0.0468
T233L	0.0673	0.061		0.0699	0.062	0.0535	0.0722		0.0799			0.0479	0.109		0.0486	0.069	0.0977	0.0797	0.0537
